Assay results published in paper PMC6335422 (Nature Communications, 2019).
Results are given in words; binding and its absence hold for the method and conditions named. For some of these results: In cells and extracts the contact can be indirect. Some results given as binding are weak or reduced against the parent protein; the word gives no strength. Where a sequence is shown, tags or fusion partners need not be part of it.

B2: His-tagged Erh1 (residues 1-104) (natural protein, S. pombe, UniProt G2TRN4 1-104, looked up)
chain: MSPPPAESHIILLIQQGSDPKTRIWSDHCSLRSAIEYIVGVYQTNQAVSEKESIDVSRFFNFFDEIYDCVPLVYDRHFRAYIPHEKQWLLHHAQEYLTAARQIP
notes: Erh1 (Enhancer of rudimentary homolog 1), S. pombe, residues 1-104; Cloned into p28a, a modified pET28a without a thrombin cleavage site; Homodimer by SEC and in the crystal; also called Enhancer of rudimentary homolog 1; source: E. coli BL21 (Gold), purified (Ni-chelating resin, SEC)

Experiments:
[1] = target: T1, Erh1 (residues 1-104), wild type (S. pombe, UniProt G2TRN4 1-104); test: ITC; SUMO-tagged Mmi1 peptides titrated into Erh1 in the sample cell; MicroCal iTC200, 293 K; 20 mM Tris-HCl pH 7.5, 150 mM NaCl; single-site binding model; both purified
T1 construct: Erh1, S. pombe, residues 1-104, amplified from the S. pombe genome, in a modified pET28a vector without thrombin site (p28a); also called Erh1wt; Enhancer of rudimentary homolog 1; source: E. coli BL21 (Gold), purified (Ni-chelating resin, size-exclusion chromatography)
T1 sequence (looked up): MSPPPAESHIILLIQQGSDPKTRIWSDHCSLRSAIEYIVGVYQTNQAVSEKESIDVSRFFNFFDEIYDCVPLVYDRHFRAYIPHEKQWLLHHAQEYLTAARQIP

FLAG-Mmi1 WT (S. pombe) = target: T2, FLAG-Mmi1 WT (S. pombe) (UniProt O74958); test: co-IP; extracts of S. pombe cells expressing Erh1-GFP and FLAG-Mmi1 WT or W112A under native promoters; antibody-conjugated beads, Western blot
T2 sequence: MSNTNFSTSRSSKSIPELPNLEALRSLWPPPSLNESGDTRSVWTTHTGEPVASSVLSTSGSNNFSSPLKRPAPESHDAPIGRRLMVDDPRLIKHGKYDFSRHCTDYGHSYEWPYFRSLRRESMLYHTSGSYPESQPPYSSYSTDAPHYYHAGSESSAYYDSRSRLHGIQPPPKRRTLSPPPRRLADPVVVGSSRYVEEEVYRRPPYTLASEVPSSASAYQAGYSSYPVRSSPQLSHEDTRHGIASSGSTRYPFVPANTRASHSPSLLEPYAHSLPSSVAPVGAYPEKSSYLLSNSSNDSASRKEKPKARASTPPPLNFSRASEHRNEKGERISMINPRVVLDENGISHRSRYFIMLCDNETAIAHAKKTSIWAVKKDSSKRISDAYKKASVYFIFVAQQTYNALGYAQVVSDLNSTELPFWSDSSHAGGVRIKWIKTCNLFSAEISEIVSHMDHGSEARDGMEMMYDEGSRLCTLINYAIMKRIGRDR

[2] = target: T3, GST-tagged Mmi1^106-122 (S. pombe) (UniProt O74958); test: pull-down; GST-Mmi1 fusion proteins incubated with Erh1, collected with glutathione-agarose resin, eluted, SDS-PAGE with Coomassie blue staining; both purified
T3 sequence: YGHSYEWPYFRSLRRES

[3] = target: T4, GST-tagged Mmi1^95-111 (S. pombe) (UniProt O74958); test: as above
T4 sequence: GKYDFSRHCTDYGHSYE

[4] = target: T5, GST-tagged YTH domain of Mmi1 (S. pombe) (UniProt O74958); test: as above
T5 sequence: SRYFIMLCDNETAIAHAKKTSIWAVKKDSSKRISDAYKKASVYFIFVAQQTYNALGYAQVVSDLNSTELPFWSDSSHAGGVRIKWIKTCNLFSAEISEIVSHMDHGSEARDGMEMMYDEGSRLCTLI

[5] = target: B2; test: ITC; MicroCal iTC200, 293 K, 20 mM Tris-HCl pH 7.5, 150 mM NaCl; SUMO-tagged Mmi1 peptides titrated into Erh1 in the cell; single-site binding model; both purified

Binder: GKYDFSRHCTDYGHSYE (domain or fragment, UniProt O74958 95-111) [SUMO-tagged Mmi1 95-111]
- binding [1]: no binding

Binder: GKYDFSRHCTDYGHSYEAPYFRSLRRES (domain or fragment, UniProt O74958 95-122) [SUMO-tagged Mmi1 95-122 W112A]
- binding [1]: no binding

B1: Erh1-GFP (protein, UniProt G2TRN4 1-104)
chain: MSPPPAESHIILLIQQGSDPKTRIWSDHCSLRSAIEYIVGVYQTNQAVSEKESIDVSRFFNFFDEIYDCVPLVYDRHFRAYIPHEKQWLLHHAQEYLTAARQIP
- binding (FLAG-Mmi1 WT (S. pombe)): binds

Binder: B2
- binding [2]: binds
- binding [3]: no binding
- binding [4]: no binding

Binder: GKYDFSRHCTDYGHSYE (domain or fragment, UniProt O74958 95-111) [SUMO tagged Mmi1^95-111]
- binding [5]: no binding
